# Measurements from the RNAGym collection of RNA variant scans (doi:10.1073/pnas.2313332121).
# Variants at the floor of the assay are shown more often than the library holds them.
# B1: TPR 5TU (parent)
# chain: GGAUCUUCUCGAUCUAACAAAAAAGACAAAUCUGCCACAAAGCUUGAGAGCAUCUUCGGAUGCAGAGGCGGCAGCCUUCGGUGGCGCGAUAGCGCCAACGUUCUCAACUAUGACACGCAAAACGCGUGCUCCGUUGAAUGGAGUUUAUCAUG
# Variants of: B1
# Experiment: polymerase ribozyme fitness, log enrichment relative to wild type (log ratio); higher = more active; in vitro selection for triplet polymerase activity
# Method in brief: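 Fitness compares each genotype's enrichment to that of the wild type on a logarithmic scale, averaging replicates with inverse-variance weights. The logarithm is base 2. Enrichment came from Illumina sequencing of input and output libraries after one triplicate round of in vitro selection, which included frozen incubation at −7 °C, of PCR-built, transcribed mutant libraries of each subunit of a heterodimeric triplet polymerase ribozyme. Only genotypes with ≥10 input reads and ≥1 read per output were kept.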
row,Variant,polymerase ribozyme fitness (log ratio)
1,G50U A60U C76A G80U U101G A107U,≤ -4.2
2,G50A C93U A107C G152U,≤ -4.2
3,G50C U55A U111G,≤ -4.2
4,G50C C57U C76A C85U,≤ -4.2
5,G50A U111G A113U A115G,≤ -4.2
6,G50A C72A C125U C132G,≤ -4.2
7,G50C A91C C116U A120G C123A,≤ -4.2
8,C51A U82G C96U G143C,≤ -4.2
9,G50A C87G G100A A107G,≤ -4.2
10,G50U A66C C69U A73C,≤ -4.2
11,G50U G74C G80A C85U U139C G141C,≤ -4.2
12,G50C A52U G143A,≤ -4.2
13,C51A U56A G59A C76G G88A A91C G141U,≤ -4.2
14,G50C A110G A120U,≤ -4.2
15,G50A U55G G80C,≤ -4.2
16,G50C C54A A91U,≤ -4.2
17,G50C U61A G62U A142C,-2.79
18,G50A U53A A91U G124A C131G A137C,≤ -4.2
19,G50U U78C U139G,-3.06
20,G50A C57U G74U C75G C87A A97C A150G,≤ -4.2
21,G50A G133U,≤ -4.2
22,G50C G67A U90G A142G,≤ -4.2
23,C51A G67U C96A,≤ -4.2
24,C51A G92C G100U C103U G117A C131G U146C,≤ -4.2

row,Variant,polymerase ribozyme fitness (log ratio)
1,C51A C57U C75G G80U C87A A98G U104G A110U,≤ -4.2
2,C51A C54U A91U G100U G124A U135C,≤ -4.2
3,G50C C57U G70A G88A G143C,≤ -4.2
4,G50A U55A U82C C96G G126C,≤ -4.2
5,G50C U56A,-2.92
6,C51A U55A A60C G74A G81A U90G C95A,≤ -4.2
7,G50U U61G C108U U135A,≤ -4.2
8,C51A U56A C76A A121C,≤ -4.2
9,G50A G59U G71U A73C C95A C108G,≤ -4.2
10,G50A C95G,-3.01
11,G50C A73C C93G A97G A115C A138G,≤ -4.2
12,G50C U134A,-3.17
13,C51A G71U C95G C96U U102G U145C U151C,≤ -4.2
14,G50A C75U A91U A150C,≤ -4.2
15,G50U C57U A73U G80C U109A C114U,≤ -4.2
16,G50C G86A G88U C125G G133C G141A,≤ -4.2
17,G50A G86A,-3.01
18,G50U C95A U109C,≤ -4.2
19,C51A A137C,≤ -4.2
20,C51A A64U C96U C99A A107G A121U G128A,≤ -4.2
21,G50A G83A A91G C108A A121C,≤ -4.2
22,G50A C93U G152A,-3.09
23,G50A C57G G81A C85U C116U,-2.31
24,G50C U90A,≤ -4.2

row,Variant,polymerase ribozyme fitness (log ratio)
1,G50C A115U,≤ -4.2
2,G50U C51U C72U C93G U101C C108A G112U A113U A121G,≤ -4.2
3,C51A C54A,≤ -4.2
4,G50C G67C G68C,≤ -4.2
5,G50U U55A G71U,-3.35
6,G50A C118U A122G A137G A147U,-2.53
7,G50C A73G G84A,-4.1
8,C51A A91G,-3.53
9,G50U G62C C75U G86U U109A A147U,≤ -4.2
10,G50C G70A A89U A120G A121G,≤ -4.2
11,G50A U77A G88A,≤ -4.2
12,G50C C63U U82C A115U U146A,-1.83
13,G50C C54U C87A U135C U144C,≤ -4.2
14,C51A C99G G141C,≤ -4.2
15,G50C C85A C93A,≤ -4.2
16,G50C C93U C118U A138U U145A,≤ -4.2
17,C51A A64U C85A G117A U151A,≤ -4.2
18,G50A C85G U127G,≤ -4.2
19,G50A C76U C93U A98C,-3.32
20,G50A C87A A137G,≤ -4.2
21,G50A G84A A142C,-3.15
22,C51A G65A G94C C114U,≤ -4.2
23,G50C C76A A89U G94U G100U,≤ -4.2
24,G50A G84A U139A,≤ -4.2

row,Variant,polymerase ribozyme fitness (log ratio)
1,G50C A89U G94U C96U A115G,≤ -4.2
2,G50C C51G A52U C76U G84U C105U C114U G133A,≤ -4.2
3,G50C G59A A107C U134A G140U,≤ -4.2
4,C51A A89C C93U G117U A137U A150C,≤ -4.2
5,C51A G65C C75G C93G C131U A142G,≤ -4.2
6,G50A C96G C118U U130C C149G,≤ -4.2
7,G50A C96G U102G C123A,≤ -4.2
8,G50A C87U A110C,≤ -4.2
9,C51A G94C A107U,≤ -4.2
10,G50U A60C C93G C95A,≤ -4.2
11,G50A U78G,-4.06
12,G50A G62A A91C C93G A120U,≤ -4.2
13,C51A G67U G81U G83U C95A C116A C118U U144C,≤ -4.2
14,G50C G86A C103G G124U C125U G126C,≤ -4.2
15,G50C A52U A66U G83A,≤ -4.2
16,G50U A52C A107G,≤ -4.2
17,G50C G74C A120G G124U G126A,≤ -4.2
18,G50C U56A U90C C95U U104C U109C C114U C118U C129U,≤ -4.2
19,G50A G100A,≤ -4.2
20,C51A C85U A89G U146A,-3.11
21,G50U G67U C85G C103U G140A A147G,≤ -4.2
22,G50A G80A C96A C132A U144A,≤ -4.2
23,G50C U61A G88A C99G U135C U146C,≤ -4.2
24,G50A G128U,-3.21

row,Variant,polymerase ribozyme fitness (log ratio)
1,G50C G74U C87U,≤ -4.2
2,G50C U53A C63G G88U A110U U144G,≤ -4.2
3,G50U C54G,-1.98
4,G50C G80C C93A A98U,≤ -4.2
5,G50C C87U A113C C116A G143U U145C,≤ -4.2
6,G50C G68A A142U,≤ -4.2
7,G50C U53G C85A G94C C95A U135A G152A,≤ -4.2
8,G50C A66G G68U C93U C103A G126A A137C,≤ -4.2
9,G50A U56A C76A A91C A115C A137G A138G,≤ -4.2
10,G50U G84A U148G,≤ -4.2
11,C51A C85U,-1.01
12,G50C G140U,≤ -4.2
13,C51A G70A,≤ -4.2
14,G50C C99U,≤ -4.2
15,G50U C95G U104A,-1.95
16,G50C C75A C87G A150G,≤ -4.2
17,G50C U77G C93G,≤ -4.2
18,G50C A52C U55A G86A,-3.95
19,G50A C79G C103G,≤ -4.2
20,G50A U53G U56A G81U A91C C105A A113U A142C A147G C149A,≤ -4.2
21,G50C G74A C87U C116A,≤ -4.2
22,C51A C96U,-1.91
23,G50C A52C C54U A106C,≤ -4.2
24,G50C A110C,≤ -4.2

row,Variant,polymerase ribozyme fitness (log ratio)
1,G50U C57U C72U C95A G126U A138U U139A,≤ -4.2
2,G50C G84U U148A,≤ -4.2
3,G50C C95U U146G,-3.64
4,G50A C93U U109C A110U C114G,≤ -4.2
5,G50U G80A G86U C125U C132U A137G,≤ -4.2
6,G50U U56A A107G,≤ -4.2
7,C51A G58C U61A A73G G94C G133U,≤ -4.2
8,G50C C51U C87U G152U,≤ -4.2
9,C51A G80C G84C A107U,≤ -4.2
10,G50C G80C C85A C95A G143U U148C,≤ -4.2
11,G50A U109A A115G G143A,≤ -4.2
12,G50A G94A U101A C125G U148C,≤ -4.2
13,G50U,0.257
14,G50C,-2.52
15,G50A C96G C129U,-3.02
16,C51A U127G,-4.1
17,C51A C63A G88U G126A,≤ -4.2
18,G50U G65C G83A C87U C99G C105A,≤ -4.2
19,G50U A91C A115G,≤ -4.2
20,G50A G67U C95U,≤ -4.2
21,G50C C87G C99A,≤ -4.2
22,G50C C87U G100A,≤ -4.2
23,C51A U55A G86U G88C A106G,≤ -4.2
24,G50U G83A A97U A98U,0.0748

row,Variant,polymerase ribozyme fitness (log ratio)
1,G50C G62A C93U G140C A147C,≤ -4.2
2,G50A U61C G92C,≤ -4.2
3,G50U A60U G86U A106U,≤ -4.2
4,G50A U53A G86C U104G A150G,≤ -4.2
5,G50C C54U G68A G86C A119G U151C,≤ -4.2
6,G50A C69G C85U U90C G100C,≤ -4.2
7,G50C U55G G94A A106C U134A,≤ -4.2
8,G50C C69A C79A U82G U90G A107G A120G C129G U139G C149G,≤ -4.2
9,G50C G117A,-2.37
10,G50C U53G C95A A120C,≤ -4.2
11,C51A U82A A115C G117A,≤ -4.2
12,G50A G136U,-2.96
13,C51A C99G,-4.07
14,G50U U56G A73U C108A A122C G141C,≤ -4.2
15,G50A G68A G71U U77A C87U G143A,≤ -4.2
16,G50U C57U C87U U135G,≤ -4.2
17,G50U A73G C95U U111C U135G G140U,≤ -4.2
18,G50U A97U U102A G124A,-2.31
19,G50U A106G,0.264
20,G50A U55A A91U U135C,≤ -4.2
21,G50U C96G,-0.544
22,G50U U53G G81A C93U C103G G128U,≤ -4.2
23,G50U U77A C87A,≤ -4.2
